Source: the RNAGym collection of RNA variant scans (doi:10.1101/gad.245936.114)
Variants at the background level are over-represented here.

B1: tRNA (parent)
chain: CUCUCGGUAGCCAAGUUGGUUUAAGGCGCAAGACUUUAAUUUAUCACUACGAAAUCUUGAGAUCGGGCGUUCGACUCGCCCCCGGGAGAUUUUUUCCUCGAGCAA

Variants of: B1
Assay: nonsense suppression (GFP-seq) (ratio to wild type); higher = more function; SUP4oc tRNA, yeast GFP reporter sort-seq
How it was run: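 Nonsense suppression (GFPSEQ) is the median GFP/RFP ratio of each sorting bin, weighted by the variant's estimated share of cells in that bin and expressed relative to the unmutated parent tRNA. Yeast strains carried genome-integrated variants of an ochre-suppressor tRNA from a library with ~3% random mutations, plus a galactose-driven GFP ochre reporter and RFP, and were grown in raffinose/galactose medium containing 80 mg/L adenine. Cells were sorted into GFP/RFP bins, each bin was Illumina-sequenced (phred ≥30), and variants were kept only with ≥100 reads and ≥30 cells.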

| Variant | nonsense suppression |
| --- | --- |
| G6A U22G | ≤ 0.026 |
| G6A U55A G85A | ≤ 0.026 |
| G6A U55C | 0.262 |
| G6A U58G | ≤ 0.026 |
| G6A U63A | ≤ 0.026 |
| G6A U63C C83A | ≤ 0.026 |
| G6A U63G | ≤ 0.026 |
| G6A U71C | ≤ 0.026 |
| G6A U76G | ≤ 0.026 |
| G6C | ≤ 0.026 |
| G6C A9C A13U U22A C29U U70C | ≤ 0.026 |
| G6C A9C A14U U22C | ≤ 0.026 |
| G6C A9G A24G G69C A74G A87G G88U | ≤ 0.026 |
| G6C A9G A30U | ≤ 0.026 |
| G6C A9U | ≤ 0.026 |
| G6C A13G | ≤ 0.026 |
| G6C A13U | ≤ 0.026 |
| G6C A13U A14G U20C | ≤ 0.026 |
| G6C A13U A14U U17G G18U G26C A31U G32A U55C A89U | ≤ 0.026 |
| G6C A13U A23C | ≤ 0.026 |
| G6C A14C A31G C34U A60G | ≤ 0.026 |
| G6C A14C G78A | ≤ 0.026 |
| G6C A14G | ≤ 0.026 |
| G6C A14G A60C G65U C79G G86C | ≤ 0.026 |

| Variant | nonsense suppression |
| --- | --- |
| G6C A14U | ≤ 0.026 |
| G6C A14U G66A | ≤ 0.026 |
| G6C A14U G78U C79G | ≤ 0.026 |
| G6C A24C G69A A74C A87C | ≤ 0.026 |
| G6C A24G | ≤ 0.026 |
| G6C A31C | ≤ 0.026 |
| G6C A31C G85C | ≤ 0.026 |
| G6C A54C | ≤ 0.026 |
| G6C A74U | ≤ 0.026 |
| G6C C11A | ≤ 0.026 |
| G6C C11A G65A A74G | ≤ 0.026 |
| G6C C11A G66A C80U C82G | ≤ 0.026 |
| G6C C12U | ≤ 0.026 |
| G6C C27U C34A C64U | ≤ 0.026 |
| G6C C27U G67A G85U | ≤ 0.026 |
| G6C C29U U58C A60C U71G A74U C82G | ≤ 0.026 |
| G6C C34A | ≤ 0.026 |
| G6C C56U | ≤ 0.026 |
| G6C C72G A74C | ≤ 0.026 |
| G6C C77A | ≤ 0.026 |
| G6C C79G | ≤ 0.026 |
| G6C C80A | ≤ 0.026 |
| G6C C80G | ≤ 0.026 |
| G6C C80G G88U | ≤ 0.026 |

| Variant | nonsense suppression |
| --- | --- |
| G6C G7A G28U G69U G86C | ≤ 0.026 |
| G6C G7C A31U | ≤ 0.026 |
| G6C G7U | ≤ 0.026 |
| G6C G10A | ≤ 0.026 |
| G6C G10A C12A C64U G67C U70C C72U | ≤ 0.026 |
| G6C G15A | ≤ 0.026 |
| G6C G26C | ≤ 0.026 |
| G6C G59A | ≤ 0.026 |
| G6C G59U | ≤ 0.026 |
| G6C G59U G66C G78A | ≤ 0.026 |
| G6C G65C G73C C75A | ≤ 0.026 |
| G6C G67A | ≤ 0.026 |
| G6C G67C | ≤ 0.026 |
| G6C G67U U71A | ≤ 0.026 |
| G6C G69C | ≤ 0.026 |
| G6C G69U G88C | ≤ 0.026 |
| G6C G86U | ≤ 0.026 |
| G6C G88C | ≤ 0.026 |
| G6C U8C G10U A13U | ≤ 0.026 |
| G6C U16C G69C | ≤ 0.026 |
| G6C U20C U63C G88A | ≤ 0.026 |
| G6C U20G | ≤ 0.026 |
| G6C U20G A30G | ≤ 0.026 |
| G6C U20G C29A A30C | ≤ 0.026 |

| Variant | nonsense suppression |
| --- | --- |
| G6C U20G U22A | ≤ 0.026 |
| G6C U21A G69C | ≤ 0.026 |
| G6C U21C A24C | ≤ 0.026 |
| G6C U21C G85U | ≤ 0.026 |
| G6C U21G C27G A54U G85C | ≤ 0.026 |
| G6C U22A C29A A31C U63A U70G | ≤ 0.026 |
| G6C U22C U71A | ≤ 0.026 |
| G6C U22G A33U | ≤ 0.026 |
| G6C U22G U35A | ≤ 0.026 |
| G6C U22G U35A C79A | ≤ 0.026 |
| G6C U35C | ≤ 0.026 |
| G6C U35G C56G G65A | ≤ 0.026 |
| G6C U55G | ≤ 0.026 |
| G6C U57C | ≤ 0.026 |
| G6C U57C G65A G67A A74C G78C | ≤ 0.026 |
| G6C U58C | ≤ 0.026 |
| G6C U63C | ≤ 0.026 |
| G6C U63C G84C | ≤ 0.026 |
| G6C U70A | ≤ 0.026 |
| G6C U70C U76C C80A | ≤ 0.026 |
| G6U | ≤ 0.026 |
| G6U A9C A30U C68A A89G | ≤ 0.026 |
| G6U A9C U35G G65A | ≤ 0.026 |
| G6U A9G A24C G66A U70C | ≤ 0.026 |

| Variant | nonsense suppression |
| --- | --- |
| G6U A13G C72U | ≤ 0.026 |
| G6U A13U | ≤ 0.026 |
| G6U A13U A31G U35G G73A G88C | ≤ 0.026 |
| G6U A13U G78U | ≤ 0.026 |
| G6U A13U U21G | ≤ 0.026 |
| G6U A13U U35G A62C A89U | ≤ 0.026 |
| G6U A14G A33C C56U | ≤ 0.026 |
| G6U A23U C79U | ≤ 0.026 |
| G6U A24C C64A | ≤ 0.026 |
| G6U A24U U57C G67A | ≤ 0.026 |
| G6U A30G G84U | ≤ 0.026 |
| G6U A31G G78U | ≤ 0.026 |
| G6U A31G U71A | ≤ 0.026 |
| G6U A31U U63C | ≤ 0.026 |
| G6U A31U U76C | ≤ 0.026 |
| G6U A33G C80A | ≤ 0.026 |
| G6U A33U A60C | ≤ 0.026 |
| G6U A54U C82A | ≤ 0.026 |
| G6U A60C | ≤ 0.026 |
| G6U A60G G61A G65C | ≤ 0.026 |
| G6U A60U | ≤ 0.026 |
| G6U A62G G65A | ≤ 0.026 |
| G6U A87U | ≤ 0.026 |
| G6U A89G | ≤ 0.026 |

| Variant | nonsense suppression |
| --- | --- |
| G6U A89U | ≤ 0.026 |
| G6U C11A A30G G73C | ≤ 0.026 |
| G6U C11A C29U G61A A89C | ≤ 0.026 |
| G6U C11G | ≤ 0.026 |
| G6U C11G A23C G78A | ≤ 0.026 |
| G6U C11U A13U | ≤ 0.026 |
| G6U C12A C29U G59A A62U U63G C80A | ≤ 0.026 |
| G6U C12G C82U C83A | ≤ 0.026 |
| G6U C27U C34A | ≤ 0.026 |
| G6U C27U G61C C81U | ≤ 0.026 |
| G6U C29A U35G U57G C72A | ≤ 0.026 |
| G6U C34A A54C G65A C75A | ≤ 0.026 |
| G6U C34G | ≤ 0.026 |
| G6U C34G A89G | ≤ 0.026 |
| G6U C34U G73A | ≤ 0.026 |
| G6U C64G G66U U70G | ≤ 0.026 |
| G6U C64U | ≤ 0.026 |
| G6U C64U G85A G86A | ≤ 0.026 |
| G6U C77G | ≤ 0.026 |
| G6U C81A | ≤ 0.026 |
| G6U C83G | 0.923 |
| G6U G7A A9C G85C | ≤ 0.026 |
| G6U G7C G59U | ≤ 0.026 |
| G6U G10A G67A | ≤ 0.026 |

| Variant | nonsense suppression |
| --- | --- |
| G6U G10C U58G | ≤ 0.026 |
| G6U G10C U70G G73C C80A | ≤ 0.026 |
| G6U G10U C75U | ≤ 0.026 |
| G6U G15C A24G G26A | ≤ 0.026 |
| G6U G15U A62U C79A G88A | ≤ 0.026 |
| G6U G15U U63A | ≤ 0.026 |
| G6U G18C U76C A87G | ≤ 0.026 |
| G6U G18U C34U A87G | ≤ 0.026 |
| G6U G19A U20A | ≤ 0.026 |
| G6U G26C A31G G85C | ≤ 0.026 |
| G6U G26U | ≤ 0.026 |
| G6U G26U G59U G84C | ≤ 0.026 |
| G6U G32U | ≤ 0.026 |
| G6U G59A | ≤ 0.026 |
| G6U G61A U70G | ≤ 0.026 |
| G6U G61C | ≤ 0.026 |
| G6U G65A | ≤ 0.026 |
| G6U G65A A87G | ≤ 0.026 |
| G6U G65C | ≤ 0.026 |
| G6U G66C | ≤ 0.026 |
| G6U G67C C68G | ≤ 0.026 |
| G6U G69C | ≤ 0.026 |
| G6U G73C | ≤ 0.026 |
